# Experimental data from PubChem BioAssay AID488969 (Vanderbilt High Throughput Screening Facility, 2010).
# The full ranking holds about 110,000 compounds; the median of “z-score” is about -0.1, and the highest 2% start at about 2. The list shows a part of the results. Calls of active or inactive are those of the source.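 The calls were made as follows: active = z-score in the third read window above 3 or below -3; inactive = the rest.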
# Molecular target: Metabotropic glutamate receptor 8 (Rattus norvegicus) (UniProt P70579)
# Assay: mGluR8 Gi/Go-coupled signaling modulation – cell-based, rat, thallium flux, HTS, primary screen (AID 488969)
# Details: HEK293 rat mGluR8, GIRK (G protein-gated inwardly rectifying potassium channel) thallium flux, FluoZin2; at 10 µM; stronger effect = higher value
# Sequence of UniProt P70579 (P70579 whole entry, looked up): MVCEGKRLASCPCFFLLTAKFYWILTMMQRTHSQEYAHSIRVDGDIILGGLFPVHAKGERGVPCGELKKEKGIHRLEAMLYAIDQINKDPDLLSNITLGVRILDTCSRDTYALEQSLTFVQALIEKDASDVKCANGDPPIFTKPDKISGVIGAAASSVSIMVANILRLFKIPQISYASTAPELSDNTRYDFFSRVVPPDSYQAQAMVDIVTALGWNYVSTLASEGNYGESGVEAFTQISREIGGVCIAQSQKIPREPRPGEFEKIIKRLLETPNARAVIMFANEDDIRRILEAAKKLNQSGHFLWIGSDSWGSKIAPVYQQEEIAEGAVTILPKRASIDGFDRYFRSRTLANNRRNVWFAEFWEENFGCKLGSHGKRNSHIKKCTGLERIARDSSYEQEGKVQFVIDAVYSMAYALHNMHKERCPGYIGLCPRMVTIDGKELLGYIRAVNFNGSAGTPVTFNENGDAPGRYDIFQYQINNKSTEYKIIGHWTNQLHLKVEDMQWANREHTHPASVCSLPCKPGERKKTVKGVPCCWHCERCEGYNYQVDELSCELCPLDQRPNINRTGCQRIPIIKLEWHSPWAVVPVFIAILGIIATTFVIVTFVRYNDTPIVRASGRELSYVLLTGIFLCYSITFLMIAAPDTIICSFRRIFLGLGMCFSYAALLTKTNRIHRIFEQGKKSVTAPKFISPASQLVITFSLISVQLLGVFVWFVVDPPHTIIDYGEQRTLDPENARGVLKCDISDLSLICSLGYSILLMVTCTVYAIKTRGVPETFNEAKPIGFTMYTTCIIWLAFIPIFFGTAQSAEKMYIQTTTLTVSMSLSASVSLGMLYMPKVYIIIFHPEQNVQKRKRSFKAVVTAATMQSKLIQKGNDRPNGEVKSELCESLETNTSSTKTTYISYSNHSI
row,Compound,z-score
1,CCC(=O)OC1(c2cccc(C)c2)CC(C)N(C)CC1C (stereo unspecified),0.852
2,Cn1c(C(=O)O)c(CC(=O)N2CCN(Cc3ccccc3)CC2)c2ccccc21,0.684
3,CCC1(CC)C(=O)N(Cc2ccccc2)C(=O)N(Cc2ccccc2)C1=O,0.0964
4,CCC(C)c1ccc(N2C(=O)NC(=O)/C(=C/c3cccn3CCOc3ccc(C)cc3)C2=O)cc1 (stereo unspecified),0.272
5,O=C1CSC2(CN3CCC2CC3)N1 (stereo unspecified),-0.155
6,Cc1ccc(S(=O)(=O)N2CC3CC(C2)c2cccc(=O)n2C3)cc1 (stereo unspecified),-0.165
7,O=S(=O)(c1ccccc1)N1CCCCC1c1cccnc1 (stereo unspecified),0.284
8,CN1c2ccc([N+](=O)[O-])cc2CC2(C(=O)NC(=O)N(c3ccc(Br)cc3)C2=O)C1c1ccccc1 (stereo unspecified),-1.17
9,Fc1ccc(NC2=NCCS2)cc1Cl,active: 4.82
10,C=CCn1c(O)c(C(CC)=NCc2cc(OC)cc(OC)c2)c(=O)[nH]c1=O,-1.69
11,CCc1ccc(-n2c(O)c(/C=N/N3CCCCC3c3cccnc3)c(=O)[nH]c2=O)cc1 (stereo unspecified),-0.118
12,Cc1cccc2c1=NC(=O)/C(=C/c1c(O)[nH]c(=O)[nH]c1=O)C=2,-0.874
13,CCCC1COC(Cn2cncn2)(c2ccc(Cl)cc2Cl)O1 (stereo unspecified),-0.364
14,COC(=O)C(O)(c1cn(C)c2ccccc12)C(F)(F)F (stereo unspecified),-0.105
15,O=C(c1ccco1)c1cn(Cc2ccccc2Cl)c2ccccc12,-0.465
16,CN1CCC(N(C)c2nc(-c3ccc([N+](=O)[O-])cc3)nc3ccccc23)CC1,0.562
17,CCCCOc1ccc(CN2CCN(CC)CC2)cc1,0.446
18,CC1(C)CN=C(Nc2ccc(F)c(F)c2)S1,-0.117
19,CC(C)Sc1nnc([C@@H](N)Cc2ccccc2)o1,-0.379

row,Compound,z-score
1,O=C1C2CCCN2C(c2cccnc2)N1c1ccc(Cl)c(Cl)c1 (stereo unspecified),-0.366
2,CN(C)CC#CCOCCOCCC#N,0.0894
3,O=[N+]([O-])c1ccc(N2CCNCC2)cc1Sc1ccccn1,0.0114
4,CC1(C)C(C(=O)NCc2ccco2)C1(C)C,-0.104
5,Clc1cnc(Oc2ccc(Oc3ncc(Cl)cc3Cl)cc2)c(Cl)c1,0.509
6,CCOC(=O)c1c(/N=C/c2c(O)n(-c3ccccc3F)c(=S)[nH]c2=O)sc2c1CCCC2,-0.0576
7,CCCCn1c(O)c(C(CC)=NCc2ccc3c(c2)OCO3)c(=O)[nH]c1=O,-0.68
8,C=CCn1c(O)c(C(CC)=NC(C)c2ccccc2)c(=O)[nH]c1=O (stereo unspecified),-0.246
9,COc1ccc(-c2nc(CS(=O)CC(=O)N3CCC4(CC3)OCCO4)c(C)o2)cc1 (stereo unspecified),-0.23
10,COc1ccc(CN2CCN(c3ccccc3F)CC2)cc1O,-0.179
11,O=[N+]([O-])c1ccc(N2CCNCC2)cc1NC1CC1,-0.0698
12,O=C(NC(Oc1ccccc1)C(Cl)(Cl)Cl)c1ccccc1 (stereo unspecified),-0.149
13,CC(C)CCn1c(=O)c(C(=O)Nc2ccccc2S(N)(=O)=O)c(O)c2ccccc21,2
14,C/C(=N\N1CCCCC1c1cccnc1)c1c(O)n(C2CCCCC2)c(=S)[nH]c1=O (stereo unspecified),0.874
15,Cc1cc(C(=O)N2CCC3(CC2)OCCO3)cs1,0.652
16,O=C(COc1ccc(Cl)cc1Cl)N1CCN(C/C=C/c2ccccc2)CC1,0.12
17,COc1ccc(OC)c(CC(=O)O)c1,0.215
18,Fc1ccc(CCNCc2ccc(Br)cc2)cc1,0.723
19,CCOC(=O)C(=CNc1ccc(C(O)(C(=O)OCC)C(F)(F)F)cc1C)C(=O)OCC (stereo unspecified),-0.709

row,Compound,z-score
1,O=C(c1ccccc1F)c1cn(CC(=O)N2CCOCC2)c2ccccc12,-0.273
2,CC1CN=C(NCc2ccncc2)S1 (stereo unspecified),0.456
3,CN1C(=O)C(=Cc2ccc(N3CCCCCC3)o2)C(=O)N(C)C1=S,-0.22
4,CCOC(=O)c1ccc(N2C(=O)CC(N3CC=C(c4ccc(F)cc4)CC3)C2=O)cc1 (stereo unspecified),1.81
5,CC12CN3CC(C)(CN(C1)C31CCOCC1)C2=O,-1.07
6,Cc1ccc(-n2c(O)c(/C=C/C=Nc3ccccc3)c(=O)[nH]c2=O)cc1,-0.158
7,CCc1cc2c(N3CCN(C)CC3)ncnc2s1,-0.448
8,CN(C)C(=O)Oc1cc(=O)n2c3c(cccc13)CCC2,-0.28
9,CC(C)C12CN3CC(C(C)C)(CN(C1)C3c1cccnc1)C2=O (stereo unspecified),-0.0725
10,COc1ccc2nc(/N=C/c3c(O)n(-c4cccc(Cl)c4)c(=O)[nH]c3=O)sc2c1,0.142
11,Cc1ccc(N2C(=O)NC(=O)/C(=C/c3cnn(-c4ccc(C)cc4)c3)C2=O)cc1,-0.638
12,Cn1cccc1/C=C1/C(=O)NC(=O)N(Cc2ccccc2)C1=O,-0.709
13,Cc1nn(Cc2ccccc2)c(C)c1C(=O)NC1CCCc2ccccc21 (stereo unspecified),-0.279
14,CCOC(=O)CC1=C(C(=O)OCC)C2(C(=O)N1)C(C(=O)OC)=C(N)Oc1ccccc12 (stereo unspecified),0.243
15,CCN(CC)CCN=Cc1c(O)n(CCC2=CCCCC2)c(=O)[nH]c1=O,0.365
16,CN1C(=O)C(Cc2nc3ccccc3c(=O)n2-c2ccccc2)c2ccccc21 (stereo unspecified),1.11
17,Clc1ccc2c(c1)C(OC1CN3CCC1CC3)c1ccccc1CS2 (stereo unspecified),-0.815
18,C=Cn1ccnc1P(=S)(c1ccc(N(C)C)cc1)c1nccn1C=C,-0.283
